Data reported in FireProtDB (doi:10.1006/jmbi.2001.4482).

Settings: Homo sapiens; pH 6.5; 25 °C; GdnHCl; Fluorescence; Mes 10 mM; reversible: Unknown

With “Interleukin-1 beta wild type (no sequence given)” the denaturant m value was 5.5 kcal/mol/M and the unfolding free energy was 7.6 kcal/mol.
